Results from the supplement of paper PMC8728848.
Some of the results follow.

Columns and labels:
Experiment in all cases: glycan array binding signal (z-score within array); higher = stronger binding
Details in all cases: glycan notation: IUPAC condensed, linker removed
[1] = biological target: Neu5Ac(a2-8)Neu5Ac
Summary of the method: (§1)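 Glycan array data came from 3228 arrays in the Consortium for Functional Glycomics database, and only arrays with an available protein sequence were kept. Glycan names were put into IUPAC-condensed notation, and columns mapping to the same glycan were averaged. The binding signal is a within-array Z-score, averaged across arrays of one protein sequence run at different concentrations or buffers and across linkers. A negative Z-score can be read as non-binding.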

[2] = biological target: Neu5Ac(a2-8)Neu5Ac(a2-3)Gal(b1-3)GalNAc(b1-4)[Neu5Ac(a2-3)]Gal(b1-4)Glc
Summary of the method: as §1

[3] = biological target: Neu5Ac(a2-8)Neu5Ac(a2-3)Gal(b1-3)GalNAc(b1-4)[Neu5Ac(a2-8)Neu5Ac(a2-3)]Gal(b1-4)Glc
Summary of the method: as §1

[4] = biological target: Neu5Ac(a2-8)Neu5Ac(a2-3)Gal(b1-4)Glc
Summary of the method: as §1

[5] = biological target: Neu5Ac(a2-8)Neu5Ac(a2-3)Gal(b1-4)GlcNAc
Summary of the method: as §1

[6] = biological target: Neu5Ac(a2-8)Neu5Ac(a2-3)[Gal(b1-3)GalNAc(b1-4)]Gal(b1-4)Glc
Summary of the method: as §1

[7] = biological target: Neu5Ac(a2-8)Neu5Ac(a2-3)[GalNAc(b1-4)]Gal(b1-4)Glc
Summary of the method: as §1

[8] = biological target: Neu5Ac(a2-8)Neu5Ac(a2-8)Neu5Ac
Summary of the method: as §1

[9] = biological target: Neu5Ac(a2-8)Neu5Ac(a2-8)Neu5Ac(a2-3)Gal(b1-4)Glc
Summary of the method: as §1

[10] = biological target: Neu5Ac(a2-8)Neu5Ac(a2-8)Neu5Ac(a2-3)[Gal(b1-3)GalNAc(b1-4)]Gal(b1-4)Glc
Summary of the method: as §1

[11] = biological target: Neu5Ac(a2-8)Neu5Ac(a2-8)Neu5Ac(a2-3)[GalNAc(b1-4)]Gal(b1-4)Glc
Summary of the method: as §1

[12] = biological target: Neu5Ac(a2-8)Neu5Ac(a2-8)Neu5Ac(a2-8)Neu5Ac(a2-3)[GalNAc(b1-4)]Gal(b1-4)Glc
Summary of the method: as §1

[13] = biological target: Neu5Ac(a2-8)Neu5Gc(a2-3)Gal(b1-4)GlcNAc
Summary of the method: as §1

[14] = biological target: Neu5Ac(b2-6)Gal(b1-4)GlcNAc
Summary of the method: as §1

[15] = biological target: Neu5Ac(b2-6)GalNAc
Summary of the method: as §1

[16] = biological target: Neu5Ac9Ac(a2-3)Gal(b1-3)GlcNAc
Summary of the method: as §1

[17] = biological target: Neu5Ac9Ac(a2-3)Gal(b1-4)GlcNAc
Summary of the method: as §1

[18] = biological target: Neu5Ac9Ac(a2-6)Gal(b1-4)GlcNAc
Summary of the method: as §1

[19] = biological target: Neu5Gc(a2-3)Gal(b1-3)GlcNAc
Summary of the method: as §1

[20] = biological target: Neu5Gc(a2-3)Gal(b1-3)[Fuc(a1-4)]GlcNAc
Summary of the method: as §1

[21] = biological target: Neu5Gc(a2-3)Gal(b1-4)Glc
Summary of the method: as §1

[22] = biological target: Neu5Gc(a2-3)Gal(b1-4)GlcNAc
Summary of the method: as §1

[23] = biological target: Neu5Gc(a2-3)Gal(b1-4)GlcNAc(b1-3)Gal(b1-4)GlcNAc(b1-2)Man(a1-3)[Neu5Gc(a2-3)Gal(b1-4)GlcNAc(b1-3)Gal(b1-4)GlcNAc(b1-2)Man(a1-6)]Man(b1-4)GlcNAc(b1-4)GlcNAc
Summary of the method: as §1

[24] = biological target: Neu5Gc(a2-3)Gal(b1-4)[Fuc(a1-3)]GlcNAc
Summary of the method: as §1

[25] = biological target: Neu5Gc(a2-6)Gal(b1-4)GlcNAc
Summary of the method: as §1

[26] = biological target: Neu5Gc(a2-6)GalNAc
Summary of the method: as §1

[27] = biological target: Neu5Gc(a2-8)Neu5Ac(a2-3)Gal(b1-4)GlcNAc
Summary of the method: as §1

[28] = biological target: Neu5Gc(a2-8)Neu5Gc(a2-3)Gal(b1-4)GlcNAc
Summary of the method: as §1

[29] = biological target: Neu5Gc(a2-8)Neu5Gc(a2-3)Gal(b1-4)GlcNAc(b1-3)Gal(b1-4)GlcNAc
Summary of the method: as §1

[30] = biological target: Neu5Gc(a2-8)Neu5Gc(a2-6)Gal(b1-4)GlcNAc
Summary of the method: as §1

[31] = biological target: Neu5Gc(b2-6)Gal(b1-4)GlcNAc
Summary of the method: as §1

B1: GS13455A-bfa-343-25-343 (Bacteroides fragilis) (protein)
chain: KDEIQIVDQDTSWQMDNKYIEEDIREQLGIDPFTDLVYLGYYGNPYTQLEAINDLVNTTLVGKNELSFKVKVTKPYKEDIKVNLMKEDKLVTDFPEMAEGIPLFPSENCTFEGGVLKAGELETTVKLTLKDVEKLNNLSGYVMAIKLTMEGSHEHLAIARTRSSYFVKLNLSIRLDNIDSSNKKIEGKGFNKEISFKSDIRPDKLGSLNDGNFTANNWYTSNANNYLTIILPEKQSLKGFRLDTNTSPSGSYMLKSCRVMVETPDGNWVNHGVFDRKSMDGIAYISFKKPVECTKVRFENMMAFNGRFSVDVNEVTAFR
[1]
  glycan array binding signal (z-score): 0.26
[2]
  glycan array binding signal (z-score): -0.06
[3]
  glycan array binding signal (z-score): 0.078
[4]
  glycan array binding signal (z-score): -0.628
[5]
  glycan array binding signal (z-score): 0.185
[6]
  glycan array binding signal (z-score): 0.853
[7]
  glycan array binding signal (z-score): 1.28
[8]
  glycan array binding signal (z-score): 0.381
[9]
  glycan array binding signal (z-score): -0.302
[10]
  glycan array binding signal (z-score): -0.113
[11]
  glycan array binding signal (z-score): 0.04
[12]
  glycan array binding signal (z-score): -0.191
[13]
  glycan array binding signal (z-score): -0.418
[14]
  glycan array binding signal (z-score): -0.1
[15]
  glycan array binding signal (z-score): -0.449
[16]
  glycan array binding signal (z-score): 0.012
[17]
  glycan array binding signal (z-score): -0.504
[18]
  glycan array binding signal (z-score): 0.139
[19]
  glycan array binding signal (z-score): -0.514
[20]
  glycan array binding signal (z-score): 0.473
[21]
  glycan array binding signal (z-score): -0.775
[22]
  glycan array binding signal (z-score): -0.186
[23]
  glycan array binding signal (z-score): 0.694
[24]
  glycan array binding signal (z-score): -0.324
[25]
  glycan array binding signal (z-score): -0.207
[26]
  glycan array binding signal (z-score): -0.577
[27]
  glycan array binding signal (z-score): -0.522
[28]
  glycan array binding signal (z-score): 0.527
[29]
  glycan array binding signal (z-score): -0.184
[30]
  glycan array binding signal (z-score): -0.53
[31]
  glycan array binding signal (z-score): 0.902
